Reference: patent US20240254223A1 (NOVIMMUNE, published 2024)

Columns and labels:
[1] = target: T1, high affinity trimeric IL-2R (IL-2Rα, IL-2Rβ and IL-2Rγ) on HEK-Blue IL-2 cells (UniProt P01589 22-272; P14784 27-551; P31785 23-369); assay: cell-based or functional assay
T1 sequence (looked up) 1: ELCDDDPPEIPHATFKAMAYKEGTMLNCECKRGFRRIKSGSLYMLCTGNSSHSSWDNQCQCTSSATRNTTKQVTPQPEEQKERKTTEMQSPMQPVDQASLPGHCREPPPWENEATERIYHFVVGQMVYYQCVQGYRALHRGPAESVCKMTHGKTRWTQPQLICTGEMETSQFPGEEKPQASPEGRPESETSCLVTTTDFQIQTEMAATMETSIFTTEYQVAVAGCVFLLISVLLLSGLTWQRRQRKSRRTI
T1 sequence (looked up) 2: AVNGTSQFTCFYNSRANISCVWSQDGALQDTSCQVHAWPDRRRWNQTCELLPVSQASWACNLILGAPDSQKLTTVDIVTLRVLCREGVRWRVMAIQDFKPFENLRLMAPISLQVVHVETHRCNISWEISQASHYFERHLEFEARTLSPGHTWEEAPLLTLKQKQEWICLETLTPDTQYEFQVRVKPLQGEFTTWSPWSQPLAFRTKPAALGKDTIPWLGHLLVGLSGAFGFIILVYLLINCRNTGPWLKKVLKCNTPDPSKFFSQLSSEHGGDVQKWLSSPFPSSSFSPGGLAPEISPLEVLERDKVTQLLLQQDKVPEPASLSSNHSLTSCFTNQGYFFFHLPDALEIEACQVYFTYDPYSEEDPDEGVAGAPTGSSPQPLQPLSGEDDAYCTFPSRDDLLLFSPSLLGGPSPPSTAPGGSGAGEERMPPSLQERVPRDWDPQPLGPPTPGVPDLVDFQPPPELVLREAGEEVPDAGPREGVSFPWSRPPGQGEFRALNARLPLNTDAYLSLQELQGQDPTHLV
T1 sequence (looked up) 3: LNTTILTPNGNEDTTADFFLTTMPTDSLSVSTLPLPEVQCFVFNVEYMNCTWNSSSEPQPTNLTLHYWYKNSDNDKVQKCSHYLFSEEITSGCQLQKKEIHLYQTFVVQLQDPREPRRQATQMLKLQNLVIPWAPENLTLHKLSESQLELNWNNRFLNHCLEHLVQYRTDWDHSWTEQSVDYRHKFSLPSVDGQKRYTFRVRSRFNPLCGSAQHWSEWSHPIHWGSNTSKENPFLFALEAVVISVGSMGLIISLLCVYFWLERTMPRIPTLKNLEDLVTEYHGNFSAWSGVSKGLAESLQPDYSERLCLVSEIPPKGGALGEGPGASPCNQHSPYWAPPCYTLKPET

[2] = target: T2, CD47 at the surface of Peak cells (human, UniProt Q08722); assay: flow cytometry, Peak cells, before cleavage
T2 construct: whole, on cells; also called cell surface CD47
Protocol: (§1) Binding activity of antibody-cytokine/receptor fusions before and after cleavage was also evaluated by flow cytometry. Peak cells derived from HEK 293 which are human cells expressing CD47 were used to evaluate masking efficacy and binding recovery to CD47 by flow cytometry. Peak cells were diluted in cold FACS buffer (PBS, 2% BSA) to 1.2×10⁶ cells/mL. 3×10⁵ cells/well were added in a 96 well V-bottom plate. The plate was then centrifugated for 5 min at 1300 rpm, 4° C. Supernatants were removed and cells were washed twice using FACS buffer. A serial dilution of antibody-cytokine/receptor fusions previously digested with MMP-9 or not digested as described above was prepared in FACS buffer. An irrelevant antibody was included. Then, 150 μL of each diluted antibody were added in corresponding well and incubated for 30 min at 4° C. Cells were washed twice with FACS buffer and 100 μL of a mouse anti human Fc-PE conjugated secondary antibody were added and the plate was incubated for 20 min at 4° C. Cells were then washed twice with FACS buffer. Finally, 150 μL of SYTOX blue dead cell stain (ThermoFisher) diluted to 1/5000 in FACS buffer were added before detection by flow cytometry with Cytoflex (Beckman Coulter). Acquisition was performed with 10000 events for each well. Data were analyzed by FlowJo software.

His-tagged human CD47 = target: T3, His-tagged human CD47 (human, UniProt Q08722 fragment, limits assumed); assay: BLI, His-CD47 on HIS1K sensor, antibody 15 µg/mL
T3 construct: loaded on HIS1K biosensors at 2.5 µg/mL; also called target antigen; not shown: His tag
Protocol: The capacity of the masking domains to inhibit binding activity of the antibody was evaluated by Bio-Layer Interferometry (BLI). […] Binding experiments were performed to evaluate the masking efficiency and the binding recovery after cleavage of the masking domains. BLI was performed on an Octet RED96 system (Sartorius). His-tagged human CD47 was diluted at 2.5 μg/mL in Kinetic Buffer (KB) (Sartorius) and loaded on HIS1K biosensors (anti-His tag antibody biosensors, Sartorius) for 300 seconds. Loaded biosensors were dipped into antibodies diluted at 15 μg/mL in KB for 300 seconds to monitor association. Then, biosensors were transferred in KB for dissociation for 60 seconds. Binding profiles were then analyzed with ForteBio Data Analysis software.

[3] = target: T2, CD47 at the surface of Peak cells; assay: flow cytometry, Peak cells; EC50 before / EC50 after cleavage
Protocol: as §1

B1: pNOVI V2K K91_A_IL-2_1_153_CM1 VKCK_IL-2Rα_1_238_CM1_IL-2Rβ_27_239_CM1 VHCH (antibody, human IgG1, kappa)
light: [about 150 residues left out]GGGGSVHMPLGFLGPGGSDIQMTQSPSSLSASVGDRVTITCNVDQVIANWLNWYQQKPGKAPKLLIYAASSLQSGVPSRFSGSGSGTDFTLTISSLQPEDFATYYCQQMHPRAPKQFGQGTKVEIKRTVAAPSVFIFPPSDEQLKSGTASVVCLLNNFYPREAKVQWKVDNALQSGNSQESVTEQDSKDSTYSLSSTLTLSKADYEKHKVYACEVTHQGLSSPVTKSFNRGEC
heavy: ELCDDDPPEIPHATFKAMAYKEGTMLNCECKRGFRRIKSGSLYMLCTGNSSHSSWDNQCQCTSSATRNTTKQVTPQPEEQKERKTTEMQSPMQPVDQASLPGHCREPPPWENEATERIYHFVVGQMVYYQCVQGYRALHRGPAESVCKMTHGKTRWTQPQLICTGEMETSQFPGEEKPQASPEGRPESETSCLVTTTDFQIQTEMAATMETSIFTTEGGGGSVHMPLGFLGPGGSAVNGTSQFTCFYNSRANISCVWSQDGALQDTSCQVHAWPDRRRWNQTCELLPVSQASWACNLILGAPDSQKLTTVDIVTLRVLCREGVRWRVMAIQDFKPFENLRLMAPISLQVVHVETHRCNISWEISQASHYFERHLEFEARTLSPGHTWEEAPLLTLKQKQEWICLETLTPDTQYEFQVRVKPLQGEFTTWSPWSQPLAFRTKPAALGKDGGGGSVHMPLGFLGPGGS[about 120 residues left out][about 100 residues left out][human IgG1 Fc left out]
notes: masked K91 fusion, uncleaved; also called n450; construct No 450
[1]
  EC50 before cleavage IL-2, HEK Blue IL-2 αβγ reporter assay: 0.19 nM
  EC50 ratio (BC/AC), HEK Blue IL-2 αβγ reporter assay: 25
[2]
  EC50: 31.6 nM
His-tagged human CD47
  Binding before cleavage (BLI): 0.6 nm
[3]
  Binding recovery (BC/AC): 80

B2: pNOVI V2K K91_A1_IL-2_1_153_CM1 VKCK IL-2Rα_1_238_CM1_IL-2Rβ_27_239_CM1 VHCH (antibody, human IgG1, kappa)
light: [about 150 residues left out]GGGGSVHMPLGFLGPGGSDIQMTQSPSSLSASVGDRVTITCNVDQVIANWLNWYQQKPGKAPKLLIYAASSLQSGVPSRFSGSGSGTDFTLTISSLQPEDFATYYCQQMHPRAPKQFGQGTKVEIKRTVAAPSVFIFPPSDEQLKSGTASVVCLLNNFYPREAKVQWKVDNALQSGNSQESVTEQDSKDSTYSLSSTLTLSKADYEKHKVYACEVTHQGLSSPVTKSFNRGEC
heavy: ELCDDDPPEIPHATFKAMAYKEGTMLNCECKRGFRRIKSGSLYMLCTGNSSHSSWDNQCQCTSSATRNTTKQVTPQPEEQKERKTTEMQSPMQPVDQASLPGHCREPPPWENEATERIYHFVVGQMVYYQCVQGYRALHRGPAESVCKMTHGKTRWTQPQLICTGEMETSQFPGEEKPQASPEGRPESETSCLVTTTDFQIQTEMAATMETSIFTTEGGGGSGGGGSVHMPLGFLGPGGSAVNGTSQFTCFYNSRANISCVWSQDGALQDTSCQVHAWPDRRRWNQTCELLPVSQASWACNLILGAPDSQKLTTVDIVTLRVLCREGVRWRVMAIQDFKPFENLRLMAPISLQVVHVETHRCNISWEISQASHYFERHLEFEARTLSPGHTWEEAPLLTLKQKQEWICLETLTPDTQYEFQVRVKPLQGEFTTWSPWSQPLAFRTKPAALGKDGGGGSVHMPLGFLGPGGS[about 120 residues left out][about 100 residues left out][human IgG1 Fc left out]
notes: masked K91 fusion, uncleaved; also called n471; construct No 471
[1]
  EC50 before cleavage IL-2, HEK Blue IL-2 αβγ reporter assay: 0.12 nM
  EC50 ratio (BC/AC), HEK Blue IL-2 αβγ reporter assay: 19
[2]
  EC50: 31.8 nM
His-tagged human CD47
  Binding before cleavage (BLI): 0.6 nm
[3]
  Binding recovery (BC/AC): 96

B3: pNOVI V2K K91_A2_IL-2_1_153_CM1 VKCK IL-2Rα_1_238_CM1_IL-2Rβ_27_239_CM1 VHCH (antibody, human IgG1, kappa)
light: [about 150 residues left out]GGGGSVHMPLGFLGPGGSDIQMTQSPSSLSASVGDRVTITCNVDQVIANWLNWYQQKPGKAPKLLIYAASSLQSGVPSRFSGSGSGTDFTLTISSLQPEDFATYYCQQMHPRAPKQFGQGTKVEIKRTVAAPSVFIFPPSDEQLKSGTASVVCLLNNFYPREAKVQWKVDNALQSGNSQESVTEQDSKDSTYSLSSTLTLSKADYEKHKVYACEVTHQGLSSPVTKSFNRGEC
heavy: ELCDDDPPEIPHATFKAMAYKEGTMLNCECKRGFRRIKSGSLYMLCTGNSSHSSWDNQCQCTSSATRNTTKQVTPQPEEQKERKTTEMQSPMQPVDQASLPGHCREPPPWENEATERIYHFVVGQMVYYQCVQGYRALHRGPAESVCKMTHGKTRWTQPQLICTGEMETSQFPGEEKPQASPEGRPESETSCLVTTTDFQIQTEMAATMETSIFTTEGGGGSGGGGSVHMPLGFLGPGGSAVNGTSQFTCFYNSRANISCVWSQDGALQDTSCQVHAWPDRRRWNQTCELLPVSQASWACNLILGAPDSQKLTTVDIVTLRVLCREGVRWRVMAIQDFKPFENLRLMAPISLQVVHVETHRCNISWEISQASHYFERHLEFEARTLSPGHTWEEAPLLTLKQKQEWICLETLTPDTQYEFQVRVKPLQGEFTTWSPWSQPLAFRTKPAALGKDGGGGSGGGGSVHMPLGFLGPGGS[about 120 residues left out][about 100 residues left out][human IgG1 Fc left out]
notes: masked K91 fusion, uncleaved; also called n530; construct No 530
[1]
  EC50 before cleavage IL-2, HEK Blue IL-2 αβγ reporter assay: 0.1 nM
  EC50 ratio (BC/AC), HEK Blue IL-2 αβγ reporter assay: 9
[2]
  EC50: 25.7 nM
His-tagged human CD47
  Binding before cleavage (BLI): 0.7 nm
[3]
  Binding recovery (BC/AC): 61

B4: pNOVI V2K K91_A3_IL-2_1_153_CM1 VKCK IL-2Rα_1_238_CM1_IL-2Rβ_27_239_CM1 VHCH (antibody, human IgG1, kappa)
light: [about 150 residues left out]GGGGSGGGGSVHMPLGFLGPGGSDIQMTQSPSSLSASVGDRVTITCNVDQVIANWLNWYQQKPGKAPKLLIYAASSLQSGVPSRFSGSGSGTDFTLTISSLQPEDFATYYCQQMHPRAPKQFGQGTKVEIKRTVAAPSVFIFPPSDEQLKSGTASVVCLLNNFYPREAKVQWKVDNALQSGNSQESVTEQDSKDSTYSLSSTLTLSKADYEKHKVYACEVTHQGLSSPVTKSFNRGEC
heavy: ELCDDDPPEIPHATFKAMAYKEGTMLNCECKRGFRRIKSGSLYMLCTGNSSHSSWDNQCQCTSSATRNTTKQVTPQPEEQKERKTTEMQSPMQPVDQASLPGHCREPPPWENEATERIYHFVVGQMVYYQCVQGYRALHRGPAESVCKMTHGKTRWTQPQLICTGEMETSQFPGEEKPQASPEGRPESETSCLVTTTDFQIQTEMAATMETSIFTTEGGGGSGGGGSVHMPLGFLGPGGSAVNGTSQFTCFYNSRANISCVWSQDGALQDTSCQVHAWPDRRRWNQTCELLPVSQASWACNLILGAPDSQKLTTVDIVTLRVLCREGVRWRVMAIQDFKPFENLRLMAPISLQVVHVETHRCNISWEISQASHYFERHLEFEARTLSPGHTWEEAPLLTLKQKQEWICLETLTPDTQYEFQVRVKPLQGEFTTWSPWSQPLAFRTKPAALGKDGGGGSVHMPLGFLGPGGS[about 120 residues left out][about 100 residues left out][human IgG1 Fc left out]
notes: masked K91 fusion, uncleaved; also called n545; construct No 545
[1]
  EC50 before cleavage IL-2, HEK Blue IL-2 αβγ reporter assay: 0.14 nM
  EC50 ratio (BC/AC), HEK Blue IL-2 αβγ reporter assay: 10
[2]
  EC50: 39.4 nM
His-tagged human CD47
  Binding before cleavage (BLI): 0.6 nm
[3]
  Binding recovery (BC/AC): 68
